Measurements: PubChem BioAssay AID686978 (National Center for Advancing Translational Sciences (NCATS), 2013)
Hit rate of the full screen: of about 420,000 compounds, about 64,000 (15%) were called active. Inconclusive results, whose numbers are uncertain, are shown with a selection of clear calls. Calls come from the whole dose curve; as a rule, active = well fitted inhibition curve with a large enough effect; inconclusive = small, poorly fitted or top-dose-only effect; inactive = flat fitted curve, though single readings scatter. No potency is given beside an inconclusive call; the fits are too rough.

test: qHTS for Inhibitors of human tyrosyl-DNA phosphodiesterase 1 (TDP1): qHTS in cells in absence of CPT; conditions: DT40 Tdp1-/- hTDP1 cells, no CPT, ATP luminescence, 48 h; activity change, negative = growth inhibition: at 46.2 µM (top of the series); note: nearly all actives have a fitted effect of over 55% in size
Method in brief: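 Seeded 400 DT40-hTDP1 cells/well (vehicle DMSO, no 20 nM CPT); pinned compounds; ≥48 hr at 37 °C; CellTiter-Glo luminescence as viability measure.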
% is set by controls: 0 for no effect and ±100 for the full control effect; potency is the fitted concentration of half-maximal effect; tags give direction and shape of the fitted curve.

SMILES | Potency | activity change, negative = growth inhibition
O=C(NN(C(=O)c1ccccc1)c1ccccc1)c1ccccc1 | inactive | 
COc1cccc(-c2ccc3c(c2)S(=O)(=O)c2cccc(C(=O)O)c2C3=O)c1OC | inactive | 
Cc1ccc(C(=O)NCCc2nnc3ccc(SCC(=O)Nc4nnc(C)s4)nn23)cc1 | inactive | 
CN(Cc1ccccc1)Cc1c(O)ccc2c(=O)c(-c3ccccc3)c(C(F)(F)F)oc12 | inactive | 
CCC(=O)N1CCN(c2ccccc2NC(=S)NC(=O)c2cccc([N+](=O)[O-])c2)CC1 | inconclusive [inhibitor, single point] | 
C=CC[n+]1c(-c2ccc(C)cc2)csc1Nc1ccc(NC(C)=O)cc1 | inconclusive [inhibitor, single point] | 
COc1ccc(CN2CC(C(N)=O)Oc3ccccc32)cc1F (stereo unspecified) | inactive | 
COc1cc(/C=N/n2c(-c3cc(C)[nH]n3)n[nH]c2=S)cc(OC)c1O |  | inconclusive: -30.3% [inhibitor]
Cc1ccc(S(=O)(=O)N2CCN(c3ccc(C(=O)N4CCOCC4)cc3[N+](=O)[O-])CC2)cc1 | active: 11.6 µM | 
COc1ccc(NS(=O)(=O)c2ccc(NC(=O)C3CC3)cc2)cc1 | active: 9.2 µM | 
CC(C)[C@H](NC(=O)N1c2ccccc2NC(=O)[C@@H]1C(C)C)C(=O)N[C@H](C(=O)O)c1ccccc1 | inactive | 
Cc1cccc(C(=O)NC2CCN(CC(=O)Nc3cccc(Cl)c3)CC2)c1 | inconclusive [inhibitor, single point] | 
CCc1ccc(OCCOCCN2CCN(C)CC2)cc1 | inconclusive [inhibitor, partial curve] | 
CCCC(=O)Nc1c2c(nn1-c1ccc(C)cc1)CS(=O)(=O)C2 | inactive | 
COc1ccc(NC(=O)CCN2CCCC2)c(OC)c1 | inactive | 
CC(=O)c1cccc(NC(=O)COc2ccccc2C(=O)Nc2ccccc2)c1 | inconclusive [inhibitor, single point] | 
O=C(CCNC(=O)c1ccc(Br)cc1)NCc1cccnc1 | inactive | 
Cn1c(=O)c2c(nc(N/N=C3\CCCc4ccccc43)n2Cc2ccc(F)cc2)n(C)c1=O | inconclusive [inhibitor, partial curve] | 
CC1CCc2sc(C(=O)OCC(=O)NCc3ccc(F)cc3)cc2C1 (stereo unspecified) | active: 14.6 µM | 
O=C(NNC(=O)c1sccc1-n1cccc1)c1ccccc1 | inconclusive [inhibitor, single point] | 
CCOc1ccc(C(=O)NC2CCN(C(=S)Nc3ccccc3C)CC2)cc1 | inactive | 
CCSc1ccccc1C(=O)Nc1cc(OC)c(OC)c(OC)c1 | inconclusive [inhibitor, single point] | 
COc1ccc(C(=O)NCCc2ccc(C(F)(F)F)cc2)cc1S(=O)(=O)N1CCOCC1 | inconclusive [inhibitor, partial curve, poor fit] | 

SMILES | Potency | activity change, negative = growth inhibition
CCC(=O)Nc1cc2c(cc1Cl)-c1ccccc1C2 | inconclusive [inhibitor, partial curve] | 
COc1ccc(NS(=O)(=O)c2ccc3c(c2)Cc2ccccc2-3)cn1 | inconclusive [inhibitor, partial curve] | 
CC(=O)c1cccc(NC(=O)c2sc(-n3nc(C)c(CCC(C)C)c3C)nc2C)c1 | inconclusive [inhibitor, single point] | 
O=C(CSc1nnc(CNC(=O)c2cccc(C(F)(F)F)c2)o1)NC1CCCC1 | inactive | 
Cc1nc(-c2ccc(S(=O)(=O)N3CCN(c4cccc(Cl)c4)CC3)cc2)co1 | inconclusive [inhibitor, single point] | 
OC(CN1CCCCC1)CN1CCCCC1 | inactive | 
COc1cc(NC(=O)Cn2c(=O)n(CC(=O)NCCc3ccc(OC)c(OC)c3)c(=O)c3sccc32)cc(OC)c1 | inactive | 
COCc1ccc(CN2CCCC(C(=O)Nc3ccccc3-c3ccc(OC)cc3)C2)o1 (stereo unspecified) | inactive | 
Cc1cccc(CCN=C(N)NS(=O)(=O)c2ccccc2)c1 | inconclusive [inhibitor, single point] | 
Cc1ccc(S(=O)(=O)N(C)c2ccc(OCC(=O)Nc3cccc(-n4cnnn4)c3C)cc2)cc1 | inconclusive [inhibitor, single point] | 
O=C(CCc1ccccc1)NNC(=O)c1ccc(Br)cc1 | inactive | 
COc1ccc(CCNC(=O)CSc2nc(-c3ccco3)cc(C(F)(F)F)n2)cc1 | inconclusive [inhibitor, partial curve, poor fit] | 
CC(C)c1cc(C(=O)N2CCOc3ccc(CN4CCC(Oc5cccnc5)CC4)cc3C2)n[nH]1 | inconclusive [inhibitor, single point] | 
Cc1c(Br)c(C(=O)N2CCc3ccccc32)nn1C | inconclusive [inhibitor, single point] | 
Cn1c(SCC(=O)NCC2CCCO2)nnc1-c1ccc(Cl)cc1 (stereo unspecified) | inactive | 
CN1CCN(S(=O)(=O)c2ccc(NC(=S)NC(=O)C3CCCCC3)cc2)CC1 | inconclusive [inhibitor, single point] | 
O=C(Nc1ccc(N2CCOCC2)cc1Cl)C1CCN(C(=O)OCc2ccccc2)CC1 | active: 16.4 µM | 
Cc1cc(NC(=O)CSc2nnc(-c3ccc4c(c3)OCCO4)o2)no1 | inconclusive [inhibitor, single point] | 
C1=CC2c3ccccc3NC(c3ccncc3)C2C1 (stereo unspecified) | inconclusive [inhibitor, single point] | 
CN(CCc1ccccn1)C(=O)CCC1CCCN(C(=O)CCOc2ccccc2)C1 (stereo unspecified) |  | inconclusive: -31.2% [inhibitor]
Cc1c(NC(=O)CSc2ccc(Cl)cc2)cccc1-c1nc2ncccc2o1 | inconclusive [inhibitor, partial curve] | 
CSc1ccccc1NC(=O)CN(C)CC(=O)Nc1ccc(Cl)cc1F | inconclusive [inhibitor, single point] | 
COc1ccc(-n2nnnc2C2CCN(S(=O)(=O)c3ccc(F)cc3Cl)CC2)cc1 | active: 16.4 µM | 
